# Data from publication PMC4336329 (PLoS ONE, 2015).
# About 14,000 (4.5%) of roughly 310,000 compounds showed an effect of 50% or more. The effect is printed as a negative number. The list shows a part of the results.
# Target: human ether-à-go-go-related gene (hERG) potassium channel (human, UniProt Q12809)
# Test: primary screen, population patch clamp on CHO cells stably expressing hERG
# 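Further: peak tail current of the secondary pulse compared with the same well before compound.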
# human ether-à-go-go-related gene (hERG) potassium channel, sequence (Q12809 whole entry, looked up): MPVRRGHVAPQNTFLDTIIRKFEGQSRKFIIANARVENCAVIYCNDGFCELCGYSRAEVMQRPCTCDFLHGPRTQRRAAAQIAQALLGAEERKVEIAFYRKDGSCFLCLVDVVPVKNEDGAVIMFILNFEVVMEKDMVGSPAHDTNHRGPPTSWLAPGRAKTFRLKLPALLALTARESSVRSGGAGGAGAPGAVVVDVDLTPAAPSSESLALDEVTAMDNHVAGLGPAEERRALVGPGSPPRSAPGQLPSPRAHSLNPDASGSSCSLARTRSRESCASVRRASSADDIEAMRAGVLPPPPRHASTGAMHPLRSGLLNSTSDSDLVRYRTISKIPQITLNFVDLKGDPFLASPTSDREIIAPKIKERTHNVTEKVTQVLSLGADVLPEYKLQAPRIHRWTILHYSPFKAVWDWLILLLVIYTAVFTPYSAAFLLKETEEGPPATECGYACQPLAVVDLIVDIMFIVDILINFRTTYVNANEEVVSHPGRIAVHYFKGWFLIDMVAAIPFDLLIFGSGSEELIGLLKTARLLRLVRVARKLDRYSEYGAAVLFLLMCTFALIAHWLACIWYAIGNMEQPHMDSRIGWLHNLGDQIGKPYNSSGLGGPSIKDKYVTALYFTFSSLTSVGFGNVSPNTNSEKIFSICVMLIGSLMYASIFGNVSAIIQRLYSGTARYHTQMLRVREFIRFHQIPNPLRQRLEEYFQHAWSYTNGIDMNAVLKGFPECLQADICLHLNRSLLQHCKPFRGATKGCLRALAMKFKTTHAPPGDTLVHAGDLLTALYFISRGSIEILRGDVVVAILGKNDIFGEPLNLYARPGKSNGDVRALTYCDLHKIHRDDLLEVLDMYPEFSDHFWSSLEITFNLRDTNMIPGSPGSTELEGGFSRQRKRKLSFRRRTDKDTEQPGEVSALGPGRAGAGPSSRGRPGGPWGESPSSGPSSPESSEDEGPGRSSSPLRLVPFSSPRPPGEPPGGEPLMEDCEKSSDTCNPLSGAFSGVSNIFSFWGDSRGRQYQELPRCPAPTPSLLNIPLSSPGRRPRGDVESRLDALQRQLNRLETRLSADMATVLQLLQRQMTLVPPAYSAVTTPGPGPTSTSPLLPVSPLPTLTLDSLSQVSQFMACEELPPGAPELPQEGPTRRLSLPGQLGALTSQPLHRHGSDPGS
row,SMILES,"hERG current change (%, negative = inhibition) at 10uM [%]"
1,COC(=O)c1cn(C(=O)OC)c2ccccc12,12.8
2,CCSc1nnc(CSc2ncccn2)n1C,2.72
3,CC(C)(C)NC(=O)NC(=O)CSc1cccc(C(F)(F)F)c1,8.87
4,Cc1ccc(C)n1-n1c(C)nc2scc(-c3cccs3)c2c1=O,-13.1
5,CN(C)c1oc(COc2ccc(F)cc2)nc1C#N,-18.6
6,Cc1cc(C)n(CCNC(=O)C2CCC(=O)N(CCc3cccc(F)c3)C2)n1 (stereo not shown),26.9
7,O=C(NC1CC1)C1CCN(C2CCN(C(=O)Cc3ccc4c(c3)OCO4)CC2)CC1,22.3
8,O=C(COC(=O)/C=C/c1ccccc1)NC1CCCCC1,-4.97
9,CCOc1ccc(OCCCC(=O)Nc2nc3ccccc3[nH]2)cc1,12
10,CCOc1ccccc1NC(=O)CSc1nc2[nH]ncc2c(=O)[nH]1,7.46
11,CN(C)c1ccc(/C=C2\C(=O)NC(=O)N(CCc3ccc(F)cc3)C2=O)cc1,11.7
12,CC(C)[C@H](NC(=O)c1ccco1)C(=O)NC12CC3CC(CC(C3)C1)C2,-5.81
13,CCCCn1cnc2cc(C)c(C)cc21,-5.01
14,O=C(CS(=O)(=O)c1ccc(C(F)(F)F)cn1)NNC(=O)c1ccccc1,8.73
15,CC1(C)CC(=O)c2c(O)cc(OCC(=O)Nc3ccc(CCO)cc3)cc2O1,-21.4
16,O=C(CCN1C(=O)C2C3CCC(C3)C2C1=O)Nc1cccc(Cl)c1 (stereo not shown),-9.91
17,CC1CCN(CC(=O)N2CCCc3c2c(=O)oc2ccc(OCc4ccccc4)cc32)CC1,-10.5
18,O=C(Nc1ccccc1O)c1cc(S(=O)(=O)N2CCOCC2)c(Cl)cc1Cl,-16.4
19,COC(=O)CSc1nnc(-c2ccc(S(=O)(=O)NCc3cccs3)cc2)o1,4.55
20,CCn1c(SCC(=O)Nc2ccc(C(C)=O)cc2)nnc1C1CC1,8.19
21,O=C(O)C1(S(=O)(=O)CCC(F)=C(F)F)CC1,21.6
22,Cc1ccc(N2CC(C)Cn3c2nc2c3c(=O)n(CC(=O)OCc3ccccc3)c(=O)n2C)cc1C (stereo not shown),-15.7
23,Cc1cccc(OCCCC(=O)Nc2ccc(S(=O)(=O)Nc3onc(C)c3C)cc2)c1,8.48

row,SMILES,"hERG current change (%, negative = inhibition) at 10uM [%]"
1,O=C(NC1CCCCC1)N(CCN1CCCC1)Cc1cc2cc3c(cc2[nH]c1=O)OCCO3,4.34
2,c1ccc(-c2nnc(-c3ccccc3)c(-c3c[nH]c4ccccc34)n2)cc1,10.5
3,CCOc1ccccc1NC(=O)NNS(=O)(=O)c1cc(C)ccc1C,6.71
4,CN1CCN(S(=O)(=O)c2ccc3ccccc3c2)CC1,1.81
5,CC1CCCCN1C(=O)CSc1nc2ccccc2[nH]1 (stereo not shown),25.8
6,CC(C)CC(c1nnnn1C(C)C)N1CCN(C(=O)c2ccco2)CC1.Cl (stereo not shown),-35.2
7,COc1ccc(-c2cccc(C(=O)Nc3ccc(C)cc3)c2)cc1,16.9
8,Cc1cn(S(=O)(=O)c2cc(Br)ccc2Br)cn1,1.08
9,O=C1NC(=O)N(Cc2ccco2)C(=O)/C1=C/C=C/c1ccco1,6.95
10,Cc1cc(NC(=O)CCC2COc3ccccc3O2)no1 (stereo not shown),2.92
11,C=CCOc1ccc2c(c1)C(=NO)c1cc(OCC=C)ccc1-2,7.91
12,C1=C(N2CCOCC2)/C(=C/c2nc3ccccc3[nH]2)CC1,6.62
13,O=C(CSC(=S)N1CCOCC1)Nc1ccc(S(=O)(=O)Nc2ncccn2)cc1,21.4
14,COc1ccc(C2c3sc(=O)[nH]c3SC3C4CCC(C4)C23)cc1OC (stereo not shown),-17.5
15,CC1CCN(Cc2nnnn2CCCC(=O)NCCN2CCOCC2)CC1,9.52
16,NC(=O)C1(N2CCCCC2)CCN(C(=O)Nc2ccccc2C(F)(F)F)CC1,12.4
17,COc1ccccc1/C=N/NC(=O)c1nnn(-c2nonc2N)c1CN(C)c1ccccc1,13.4
18,CCN(CC)c1ccc(NC(=O)c2ccccc2OCC(=O)OC)cc1,-0.764
19,O=C(Nc1ccc2nc(-c3ccccn3)[nH]c2c1)C1CCCCC1,-7.58
20,O=C(O)CCCNS(=O)(=O)c1cccs1,13.9
21,CCOc1ccc2oc(=O)cc(C)c2c1,14.3
22,C=C1CSc2nc(=O)c3c4c(sc3n21)CCC4,-7.85
23,C=CC[n+]1c(-c2ccc(C)cc2)csc1Nc1c(C)n(C)n(-c2ccccc2)c1=O.[Br-],-26.4
